We go through 83 variants from the RNAGym collection of RNA variant scans (doi:10.1073/pnas.2313332121).

This sample is rich in variants without activity. A value given as a limit tells only on which side of the number the result lay.

B1: TPR 5TU (parent)
chain: GGAUCUUCUCGAUCUAACAAAAAAGACAAAUCUGCCACAAAGCUUGAGAGCAUCUUCGGAUGCAGAGGCGGCAGCCUUCGGUGGCGCGAUAGCGCCAACGUUCUCAACUAUGACACGCAAAACGCGUGCUCCGUUGAAUGGAGUUUAUCAUG

The data set covers variants of B1. In words: polymerase ribozyme fitness, log enrichment relative to wild type (log ratio); higher = more active; in vitro selection for triplet polymerase activity. In outline: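 Streptavidin-bead capture of gel-excised extended constructs, followed by RT-PCR, closed a single triplicate in vitro selection round. That round began by annealing PCR-built, transcribed mutant libraries of each subunit of a heterodimeric triplet polymerase ribozyme with a biotinylated primer, the partner subunit and triplets, then incubating them frozen at −7 °C. After Illumina sequencing of inputs and outputs, genotypes needed ≥10 input reads and ≥1 read per output. Fitness is the base-2 logarithm of genotype enrichment over wild-type enrichment, using inverse-variance-weighted replicate averages.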
Regarding C85U G133C, the “polymerase ribozyme fitness (log ratio)” value was -1.69.
Under C85A G92U C131G G152C stands at most -4.2; under C85U C96U A113G G117U A142C, at most -4.2; under C85A U151G, at most -4.2.
Under G86A G88U G117U stands at most -4.2; under C85A G112U A113C U148G, at most -4.2.
As for C85G C99G, the figure is -4.1.
With C85G C96A A106U C118A G128U, the “polymerase ribozyme fitness (log ratio)” value was at most -4.2.
As for C87A A98G A115C, the “polymerase ribozyme fitness (log ratio)” value was at most -4.2.
Under C85A U111G stands at most -4.2.
In the case of G84U U104G A115C, the “polymerase ribozyme fitness (log ratio)” value is -3.36.
With C87A C96A G141A, the “polymerase ribozyme fitness (log ratio)” value is at most -4.2.
Under G84U A107G stands at most -4.2; under C85A C95A C96G U109C A110C G117C U135C A138C U146G A147C U151G, at most -4.2.
As for C85U C118U A142U, the figure is -1.02.
As for G86C C125A G141U, the figure is at most -4.2.
G84U A98G: the “polymerase ribozyme fitness (log ratio)” value was -2.89.
Under C85G C95G A110U C123U stands at most -4.2.
As for C85U A89G G128U, the figure is at most -4.2.
For the variant C85U U102G C114U, the “polymerase ribozyme fitness (log ratio)” value is at most -4.2.
As for C85U C149A, the figure is at most -4.2.
Under G84U G88C A110C U134A stands at most -4.2.
C85A C103A C149U: the “polymerase ribozyme fitness (log ratio)” value is -3.27.
Under C85U A89C C93U C149U stands -3.26.
As to C87A C93U, the “polymerase ribozyme fitness (log ratio)” value was at most -4.2.
As for C87A G124U, the figure is at most -4.2; as for C85U G88U C105G C149U, at most -4.2.
With C85G U148C, the “polymerase ribozyme fitness (log ratio)” value is at most -4.2.
Under C85A A97U G152A stands at most -4.2; under C85U G136U G152C, at most -4.2.
As for G86U C118U A119G, the figure is -4.19.
As for G86U A120G C129A U145G, the figure is -4.13.
Regarding C87A A121U C125A, the “polymerase ribozyme fitness (log ratio)” value was at most -4.2.
As for C85U A107C U144C, the figure is at most -4.2; as for C85U U146A G152U, -3.06; as for C87A A107G A115U U135C A142C, at most -4.2.
Under C85G A138U stands at most -4.2; under C87A A98G G126A U145A, at most -4.2; under C85A G86A, at most -4.2.
As for C85A G94C A121C, the figure is -1.84; as for C85U G136C, -3.29.
Take C87A C93U A150U: the “polymerase ribozyme fitness (log ratio)” value was at most -4.2.
As for G86U C93G A106G C132U U148A, the figure is -3.05; as for G86U C87U, at most -4.2.
As for G86U C87A, the “polymerase ribozyme fitness (log ratio)” value was at most -4.2.
Under C87A G92C U101C C114G G133U stands at most -4.2; under C87A A89G C116U C125U, at most -4.2.
Under G86A C87A A89G C114U stands at most -4.2.
For C85U C116U G141A, the “polymerase ribozyme fitness (log ratio)” value was -2.95.
C85G A122U C123A: the “polymerase ribozyme fitness (log ratio)” value was -2.3.
As for G86A U139G, the figure is -1.36.
As for C85U C96U G126C A147G, the figure is at most -4.2; as for G86A C103G C123U, -3.36; as for C87G A98G C99G, at most -4.2.
As for C87A G92U, the figure is 0.159; as for C87A G92A, at most -4.2; as for C87G A115C, at most -4.2.
With C85U G92U U139G, the “polymerase ribozyme fitness (log ratio)” value is -1.29.
As for C85G C87A, the “polymerase ribozyme fitness (log ratio)” value is at most -4.2.
Under C87A A138C stands at most -4.2; under C85A A91C C95U G140U, at most -4.2; under C85U C95A U102A G136U A142G, at most -4.2.
As for C85U U104G, the figure is -0.929; as for G86A U90G, at most -4.2.
With G86A U90A, the “polymerase ribozyme fitness (log ratio)” value is -3.67.
As for C85U C103G C105U U139A, the figure is at most -4.2; as for C85G C87U A115C U148A A150G, at most -4.2; as for G86U G133A, at most -4.2.
Under C85A G94A stands -1.74; under C87A G88C C116G U130A, at most -4.2; under G86U, -1.62.
Under G86C stands -2.55; under C87A A150G, at most -4.2; under C85G C118G, -2.62.
On to C85A C95A, for which the “polymerase ribozyme fitness (log ratio)” value was -0.893.
Under C85G C149G stands at most -4.2; under C85G C149U, -2.46; under C87A C125U, -4.14.
With G86C U151G, the “polymerase ribozyme fitness (log ratio)” value was at most -4.2.
As for C85G U135G, the figure is at most -4.2; as for C85U A98U U139A, at most -4.2.
In the case of C87G A98U, the “polymerase ribozyme fitness (log ratio)” value is -3.64.
Under C85G C125A stands -2.37.
